# This is one part of the list.
# B1: Tamarinin (protein)
# chain: CDDSARAGNIVVYWGQGGSDNSEGSLKEACKSGHYNMIVLQQLIVYDDGRDPDLNLGAHCSDCTKLEEQIKYCQNKDIKILLQIGQVVPTQEDVKDVTKNLSEYLLKNFFSGKSGPLGEVYLNGIDIASVPEGNNLKFDELVEALNDSSTERRIYLSASPLCVYPDYYLNKAIQTEKLDFLFVQFFYQNPCIYTEGNPENLFEAMKTWTKNVPESMIFMALPATPNLDGYIPPRVLNKEILPAVSEASNFAGVMIFDRYFDRFRKYSSKIK
# Columns and labels:
# Assay in all cases: glycan array binding signal (z-score within array); higher = stronger binding
# Conditions in all cases: glycan notation: IUPAC condensed, linker removed
# [1] = molecular target: Gal(b1-4)GlcNAc(b1-2)Man(a1-3)[Gal(b1-4)GlcNAc(b1-2)Man(a1-6)]Man(b1-4)GlcNAc(b1-4)[Fuc(a1-6)]GlcNAc
# Method in brief: (§1)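 Glycan array data came from 3228 arrays in the Consortium for Functional Glycomics database, and only arrays with an available protein sequence were kept. Glycan names were put into IUPAC-condensed notation, and columns mapping to the same glycan were averaged. The binding signal is a within-array Z-score, averaged across arrays of one protein sequence run at different concentrations or buffers and across linkers. A negative Z-score can be read as non-binding.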
# [2] = molecular target: Gal(b1-4)GlcNAc(b1-2)Man(a1-3)[Gal(b1-4)GlcNAc(b1-2)Man(a1-6)][Gal(b1-4)GlcNAc(b1-4)]Man(b1-4)GlcNAc(b1-4)[Fuc(a1-6)]GlcNAc
# Method in brief: as §1
# [3] = molecular target: Gal(b1-4)GlcNAc(b1-2)Man(a1-3)[Gal(b1-4)GlcNAc(b1-2)Man(a1-6)][GlcNAc(b1-4)]Man(b1-4)GlcNAc(b1-4)[Fuc(a1-6)]GlcNAc
# Method in brief: as §1
# [4] = molecular target: Gal(b1-4)GlcNAc(b1-2)Man(a1-3)[GlcNAc(b1-2)Man(a1-6)]Man(b1-4)GlcNAc(b1-4)GlcNAc
# Method in brief: as §1
# [5] = molecular target: Gal(b1-4)GlcNAc(b1-2)Man(a1-3)[GlcNAc(b1-4)][Gal(b1-4)GlcNAc(b1-2)Man(a1-6)]Man(b1-4)GlcNAc(b1-4)GlcNAc
# Method in brief: as §1
# [6] = molecular target: Gal(b1-4)GlcNAc(b1-2)Man(a1-3)[Man(a1-6)]Man(b1-4)GlcNAc(b1-4)GlcNAc
# Method in brief: as §1
# [7] = molecular target: Gal(b1-4)GlcNAc(b1-2)Man(a1-6)Man(b1-4)GlcNAc(b1-4)GlcNAc
# Method in brief: as §1
# [8] = molecular target: Gal(b1-4)GlcNAc(b1-2)Man(a1-6)[GlcNAc(b1-2)Man(a1-3)]Man(b1-4)GlcNAc(b1-4)GlcNAc
# Method in brief: as §1
# [9] = molecular target: Gal(b1-4)GlcNAc(b1-2)Man(a1-6)[Man(a1-3)]Man(b1-4)GlcNAc(b1-4)GlcNAc
# Method in brief: as §1
# [10] = molecular target: Gal(b1-4)GlcNAc(b1-2)[Gal(b1-4)GlcNAc(b1-4)]Man(a1-3)[Gal(b1-4)GlcNAc(b1-2)Man(a1-6)]Man(b1-4)GlcNAc(b1-4)GlcNAc
# Method in brief: as §1
# [11] = molecular target: Gal(b1-4)GlcNAc(b1-2)[Gal(b1-4)GlcNAc(b1-4)]Man(a1-3)[Gal(b1-4)GlcNAc(b1-2)[Gal(b1-4)GlcNAc(b1-6)]Man(a1-6)]Man(b1-4)GlcNAc(b1-4)GlcNAc
# Method in brief: as §1
# [12] = molecular target: Gal(b1-4)GlcNAc(b1-2)[Gal(b1-4)GlcNAc(b1-4)]Man(a1-3)[GlcNAc(b1-4)][Gal(b1-4)GlcNAc(b1-2)Man(a1-6)]Man(b1-4)GlcNAc(b1-4)GlcNAc
# Method in brief: as §1
# [13] = molecular target: Gal(b1-4)GlcNAc(b1-2)[Gal(b1-4)GlcNAc(b1-4)]Man(a1-3)[GlcNAc(b1-4)][Gal(b1-4)GlcNAc(b1-2)[Gal(b1-4)GlcNAc(b1-6)]Man(a1-6)]Man(b1-4)GlcNAc(b1-4)GlcNAc
# Method in brief: as §1
# [14] = molecular target: Gal(b1-4)GlcNAc(b1-2)[Gal(b1-4)GlcNAc(b1-6)]Man(a1-6)[Gal(b1-4)GlcNAc(b1-2)Man(a1-3)]Man(b1-4)GlcNAc(b1-4)GlcNAc
# Method in brief: as §1
# [15] = molecular target: Gal(b1-4)GlcNAc(b1-2)[Gal(b1-4)GlcNAc(b1-6)]Man(a1-6)[Gal(b1-4)GlcNAc(b1-2)Man(a1-3)]Man(b1-4)GlcNAc(b1-4)[Fuc(a1-6)]GlcNAc
# Method in brief: as §1
# [16] = molecular target: Gal(b1-4)GlcNAc(b1-2)[Gal(b1-4)GlcNAc(b1-6)]Man(a1-6)[GlcNAc(b1-4)][Gal(b1-4)GlcNAc(b1-2)Man(a1-3)]Man(b1-4)GlcNAc(b1-4)GlcNAc
# Method in brief: as §1
# [17] = molecular target: Gal(b1-4)GlcNAc(b1-2)[Gal(b1-4)GlcNAc(b1-6)]Man(a1-6)[GlcNAc(b1-4)][Gal(b1-4)GlcNAc(b1-2)[Gal(b1-4)GlcNAc(b1-4)]Man(a1-3)]Man(b1-4)GlcNAc(b1-4)[Fuc(a1-6)]GlcNAc
# Method in brief: as §1
# [18] = molecular target: Gal(b1-4)GlcNAc(b1-3)Gal(b1-3)GalNAc
# Method in brief: as §1
# [19] = molecular target: Gal(b1-4)GlcNAc(b1-3)Gal(b1-3)GlcNAc
# Method in brief: as §1
binder,measurement,setting,value
B1,glycan array binding signal (z-score),[1],-0.104
same,glycan array binding signal (z-score),[2],-0.296
same,glycan array binding signal (z-score),[3],-0.692
same,glycan array binding signal (z-score),[4],-0.373
same,glycan array binding signal (z-score),[5],-0.461
same,glycan array binding signal (z-score),[6],-0.282
same,glycan array binding signal (z-score),[7],-0.476
same,glycan array binding signal (z-score),[8],-0.228
same,glycan array binding signal (z-score),[9],-0.504
same,glycan array binding signal (z-score),[10],-0.463
same,glycan array binding signal (z-score),[11],-0.442
same,glycan array binding signal (z-score),[12],-0.122
same,glycan array binding signal (z-score),[13],0.105
same,glycan array binding signal (z-score),[14],-0.226
same,glycan array binding signal (z-score),[15],0.134
same,glycan array binding signal (z-score),[16],-0.438
same,glycan array binding signal (z-score),[17],-0.456
same,glycan array binding signal (z-score),[18],-0.297
same,glycan array binding signal (z-score),[19],-0.424
